Reference: PubChem BioAssay (NCI)
Values joined by “and” are separate entries in the source; they are usually repeats but may differ in a detail not shown here. Equal values may be shown once.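 Cultured in 96-well plates, cells were exposed to test compound for 48 hours across five concentrations. Abbreviation: GI50, concentration required for 50% inhibition of growth. The concentration for full growth arrest is given as TGI.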

System: NCI-H322M lung
Test: inhibition of tumour cell growth, NCI panel, 48 h

| Structure (SMILES) | GI50 | TGI |
| --- | --- | --- |
| CCCCCc1ccc(S(=O)(=O)Nc2cccc(-c3csc(NC(=O)CCCCCN4CCN(C)CC4)n3)c2)cc1 | 2.14 µM | 5.18 µM |
| COc1cc(/C=N/n2cnc3oc(-c4ccccc4)cc3c2=N)cc(CN2CCCC2)c1O | 1.83 µM | 3.68 µM |
| CN(C)CCNC(=O)c1ccc(-c2nc3ccc4[nH]ncc4c3c3c2CCC3)cc1 | 0.741 µM | 5.14 µM |
| Oc1ccc(CSc2nnc(-c3cnccn3)n2-c2ccccc2)c2cccnc12 | 1.82 µM | > 100 µM |
| COc1cc(O)c2c(c1)/C=C/C[C@H](O)[C@H](O)C(=O)/C=C\C[C@H](C)OC2=O | 6.65 µM and 15.3 µM | 27.3 µM and 64.7 µM |
